Source: the RNAGym collection of RNA variant scans (doi:10.7554/elife.90254)
Read counts are not given, so values of variants with three or more changes are uncertain.

B1: LINE1-mini (parent)
chain: GGCAGAGCUCAACACAGCGUGGCAAAGUGGCUGUGGCUAGACUGCC

Variants of: B1
Experiment: self-cleavage, relative activity (ratio to wild type); higher = more cleavage; in vitro, sequencing; the parent is a self-cleaving ribozyme
With GGGAGAGCUCAACACAGCGUGGGAGAGUGGCGGUUGCUAGACUGCC [C3G C23G A25G U32G G35U] the self-cleavage was 0.08. Variant GGGAGACCUCAACACAGCGUGGCAAAUUGGCUGUGUCUAGACUGCC [C3G G7C G27U G36U] has a self-cleavage of 0.02. For GGGAAAGCUCAACACAGCGUGGCAAAGUGGCUGUCGCUAGACUUCC [C3G G5A G35C G44U], the self-cleavage was 0.12. Variant GGGAUAGCUCAAAACAGCUUGGCAAAUUGGCUGUGGCUAUACUGCC [C3G G5U C13A G19U G27U G40U] has a self-cleavage of 0.02. GGGAGAACUCAACACAGCGUGGCAACGUGGCUGUGGCUAGACUGCC [C3G G7A A26C] gave a self-cleavage of 0.52. Work on GGGACAGCUCAACACAGCGUGCCAAAGUGGCUGUGGCUAGAAUGCC [C3G G5C G22C C42A] yielded a self-cleavage of 0.31. In the case of GGGAUAGCUCAUCACAGAGUGGUAAAGUGGCUGUGGCUAUACUACC [C3G G5U A12U C18A C23U G40U G44A], the self-cleavage is reported as 0.01. In the case of GGGAGAGCUCAACACAACGUGGCAAAGUGGCUAUAGCUAGACUGCC [C3G G17A G33A G35A], the self-cleavage is reported as 0.03. GGGAGAGCUCAACACAUCGUGGCAAAGUGGCUGUUGCUAGACUGCC [C3G G17U G35U] showed a self-cleavage of 0.09. For GGGAGAGCUCAACACAGCGUCCCAAAGCGGCUGUUGCUAGACUGCC [C3G G21C G22C U28C G35U], the self-cleavage was 0.04. GGGAGAGCUCAACACAUCGUGGCAAAGUGGCUGUAGCUCGACUGCC [C3G G17U G35A A39C] showed a self-cleavage of 0.03. For GGGAGAGCUCAACACACCGUGGCAAAGUGGGUGUCGCUAGACUGCC [C3G G17C C31G G35C], the self-cleavage was 1.58. Variant GGGAGAGCUCAACACAGCAUGGCAAAGUCGCUGUGGCUAGACUGCC [C3G G19A G29C] has a self-cleavage of 0.92. GGGAGAGCUCAACACAGCGUGGCAAAGUGGUUGUGGCUAGCCUGCC [C3G C31U A41C] showed a self-cleavage of 0.02. With GGGAGAUAUCAACACAGAGUGGCAAAGUGGCUGUGGCUAGACUGCC [C3G G7U C8A C18A] the self-cleavage was 0.43. With GGGAGAGCUCAACACAGCUUGUCACAGUGGCUGUGACUAGACUGCC [C3G G19U G22U A25C G36A] the self-cleavage was 0.1. With GGGAGAGCUCAACACAGCGUGGUAAAGUGGCUGUGGCUUGACUGAC [C3G C23U A39U C45A] the self-cleavage was 0.05. With GGGAGAGCUCAACACAGCGUGGCAAAGUGGUUGUGGCUGGACUGCC [C3G C31U A39G] the self-cleavage was 0.08. For GGGAUCGCUCCACACAGCGUGGCAAAGUGGCUGUGGCUAGACUGCC [C3G G5U A6C A11C], the self-cleavage was 0.05. With GGGAAAGAUCAACACAGCGUGGCAAAUUGGCUGUCGCUAGACUGCC [C3G G5A C8A G27U G35C] the self-cleavage was 0.2. For GGGAGAUCUCAACACAGCGUGGCGAAGUGGUUGUGGCUAGACUGCC [C3G G7U A24G C31U], the self-cleavage was 0.08. In the case of GGGAGAGCUCAACACACCGUGGCCAAGUGGUUGUGGCUAGACAUCC [C3G G17C A24C C31U U43A G44U], the self-cleavage is reported as 0.04. Variant GGGAGAGCUCAACACAGCGUAGCAAAGUGGCUGGGGCUAGACUGCC [C3G G21A U34G] has a self-cleavage of 0.11. Variant GGGAGACUUCAACACAGCGUGGCAAAGUUGCUGUUGCUAGGCUGCC [C3G G7C C8U G29U G35U A41G] has a self-cleavage of 0.14. With GGGAGAACUCAACACAGCGUGGCAAAGUGCCUGUGGCUAGACUGCC [C3G G7A G30C] the self-cleavage was 0.86. GGGAGAGCUCAACACAGCCUCGCAAAGUGGCUGUGGCUUGACUUCC [C3G G19C G21C A39U G44U] showed a self-cleavage of 0.03. For GGGAGAGCUCAACACAGCCUGGCAAUGUGGCUGUGGCUAGACUGCC [C3G G19C A26U], the self-cleavage was 0.08. Variant GGGAGAGCUCAACACAGCCUGGCAAAGUGCCUGUGGCUAGACUUCC [C3G G19C G30C G44U] has a self-cleavage of 0.89. With GGGAAAGCACAACACAGCGUGGCAAAAUGGCUGUGACUGGUCUGCC [C3G G5A U9A G27A G36A A39G A41U] the self-cleavage was 0.29. Work on GGGACAGCUCCACACAGCGUGGCAAAGUGCCUGUGGCUAGACUGCC [C3G G5C A11C G30C] yielded a self-cleavage of 0.01. With GGGACAGCUCAACACAGCCUGGCAAUGUGGCUGUGAGUAGACUGCC [C3G G5C G19C A26U G36A C37G] the self-cleavage was 0.03. GGGAAAGCUCAACACAGCGUGGCAAAGUGGCUGUGGCUAGACUGUC [C3G G5A C45U] showed a self-cleavage of 0.11. GGGAGAGCUCAACACAGCGUGGUAAAGUGGCUGUGGCUAGGCUGCC [C3G C23U A41G] gave a self-cleavage of 0.03. Variant GGGAGAGCUCAACACAUCGUGGCAAAGUGGCUGUGGCUACACUGCC [C3G G17U G40C] has a self-cleavage of 0.07. With GGGAUAGCUCAACACAGCGUGGCAAAAUGGCUGUGGCUAGACUGAC [C3G G5U G27A C45A] the self-cleavage was 0.11. Work on GGGAGAACUCAACACUGCGUGGCAAAGUGGCUGUGGCUAGACUACC [C3G G7A A16U G44A] yielded a self-cleavage of 0.06. With GGGAGACCUCAACACAGCGUGGCAAAGUGGCGGUGGCUAGAGUGCC [C3G G7C U32G C42G] the self-cleavage was 0.01. For GGGAGAUCUCAACAAAGCUUAGCAUAGUGGCUGUGGCUAGACUGCC [C3G G7U C15A G19U G21A A25U], the self-cleavage was 0.14. GGGAGAGCUCAACACAACGGGGCAAAGUGGCUGUGGCUAGACUGCC [C3G G17A U20G] showed a self-cleavage of 0.07. In the case of GGGAGAGCUCAACACAGCGUGGCAAAGUGGGUGUGACUAGACUGCC [C3G C31G G36A], the self-cleavage is reported as 0.4. GGGAGAUCUCUACACAGCGUGGCAAAGUGGCUGUGGCUAGACUGAA [C3G G7U A11U C45A C46A] gave a self-cleavage of 0.01. With GGGAGAUCUCAACACAGCGUGGCAAAGUAGCUGUGGCUAGACUGCC [C3G G7U G29A] the self-cleavage was 0.06. In the case of GGGAGAGCUCAACACAUCGUGGCAAAGUGGCUGUGGCUAGACUGCG [C3G G17U C46G], the self-cleavage is reported as 0.23. In the case of GGGAGAGCUCAACACAGCGUGGCAAAGUGGAUGUUGCUAGACUGCC [C3G C31A G35U], the self-cleavage is reported as 0.24. Work on GGGAGAGCUCAACACAGCUUGGCAAAGUGGCUAUGGAUAGACUGCC [C3G G19U G33A C37A] yielded a self-cleavage of 0.2. GGGAGACCUCAACACCGCGUGGCAAUGUGGAUGUGGCUAGACUGCC [C3G G7C A16C A26U C31A] gave a self-cleavage of 0.06. In the case of GGGAGAGCUCAACACAGCGUGGUAAAGUGGCUGUGGCUAAACUGCC [C3G C23U G40A], the self-cleavage is reported as 0.26. With GGGAGACCUCAACACAGCGUGGCAAAGUGGCCGUGGCUAGACUGGC [C3G G7C U32C C45G] the self-cleavage was 0.03. In the case of GGGAGAGCUCAACACAGCUAGGCAAAGUGGCUGUGGCUUGACUGCC [C3G G19U U20A A39U], the self-cleavage is reported as 0.04. GGGAUAGCUCAACACAGCGUGGGAAAGUGGCUGUCGCUAGACUGCC [C3G G5U C23G G35C] gave a self-cleavage of 0.02. GGGAGACCUCAACACAGCGUUGCAAAGUGGCUGUGGCUAUACUGCC [C3G G7C G21U G40U] showed a self-cleavage of 0.02. In the case of GGGAAACCUCAACACAGCGUGGCAAAGUGGCUGUGGCUAGACUGCC [C3G G5A G7C], the self-cleavage is reported as 0.06. GGGAAAACUCAACACAGCGUGGCAAAGUGGCUGUGGCUAGACUGAC [C3G G5A G7A C45A] showed a self-cleavage of 0.25. GGGAGAGCUCAACACAGCGUGGCAAAGUGGCUGUGGAUAGACUGCA [C3G C37A C46A] showed a self-cleavage of 0.19. In the case of GGGAGAGCUCAACACAGCCUGGCAUAGUGGCUGUGGCUAGACUGCC [C3G G19C A25U], the self-cleavage is reported as 0.15. GGGAGAGCUCAACACAGCUCGGCAAAGUGGAUGUGGCUAGACUGCC [C3G G19U U20C C31A] gave a self-cleavage of 0.12.
